{"source": "patent US20180193409A1", "about": "“PEPTIDYL TPOR ANTAGONISTS AND USES THEREOF” (POLYMERS CRC LIMITED, priority 2015, published 2018)", "note": "At least one peptide structure holds a part that was inferred or is arguable (an end, a ring closure or a residue). For at least one compound, name, drawing or mass did not settle the structure. Bridge positions count the residues as written; N and C are the ends. Peptide text beside a SMILES is read from it.", "data": [{"target": "T1, receptor for human TPO (c-Mpl) (Homo sapiens, UniProt P40238)", "T1 construct": "expressed in transfected cells; host or cells: FD-Mpl (murine, derived from FDCP-1)", "T1 sequence (P40238 26-635)": "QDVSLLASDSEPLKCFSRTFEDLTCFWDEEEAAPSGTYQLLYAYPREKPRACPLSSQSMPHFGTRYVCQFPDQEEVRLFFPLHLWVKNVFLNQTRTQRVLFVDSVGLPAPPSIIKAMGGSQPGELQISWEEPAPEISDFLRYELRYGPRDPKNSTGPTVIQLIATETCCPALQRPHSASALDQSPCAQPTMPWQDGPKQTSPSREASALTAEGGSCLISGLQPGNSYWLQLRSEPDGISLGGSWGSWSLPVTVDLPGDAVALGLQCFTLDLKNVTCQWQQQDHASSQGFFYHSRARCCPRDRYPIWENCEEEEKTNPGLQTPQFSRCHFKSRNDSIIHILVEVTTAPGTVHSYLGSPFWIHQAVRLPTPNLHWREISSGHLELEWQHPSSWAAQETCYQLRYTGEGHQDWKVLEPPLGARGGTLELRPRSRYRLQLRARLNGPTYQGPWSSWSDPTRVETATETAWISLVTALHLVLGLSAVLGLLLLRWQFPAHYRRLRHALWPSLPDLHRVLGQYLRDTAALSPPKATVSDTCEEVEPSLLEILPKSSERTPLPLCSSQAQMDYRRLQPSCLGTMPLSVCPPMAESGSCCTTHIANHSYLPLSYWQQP", "assay": "Antagonist assay: proliferation of FD-Mpl cells in media supplemented with rhTPO (ATP-luminescence)", "type": "cell-based", "settings": "FD-Mpl cells, 6 or 10 ng/mL rhTPO", "protocol": "(§1) Bioactivity testing was carried out as follows. All compounds were tested on a murine TPO-dependent cell line FD-Mpl. FD-Mpl cells are derived from the haemopoietic growth factor dependent cell line FDCP-1 and express the receptor for human TPO (c-Mpl)—(as per Winkler, D., Riches, A., Condie, G., Tarasova, A., Andrade, J., White, J., Cablewski, T., Werkmeister, J., Haylock, D. and Meagher, L., ACS Chemical Biology 2010, DOI: 10.1021/cb100100u). These cells are typically cultured in media supplemented with 10% foetal bovine serum and the cytokines interleukin-3, GM-CSF or TPO (as per Naparstek, E., Pierce, J., Metcalf, D., Shadduck, R., Ihle, J., Leder, A., Sakakeeny, M. A., Wagner, K., Falco, J., Fitzgerald, T. J. and Greenberger, J. S., Blood 1986, 67, 1395-1403). In the absence of either of these factors, FDCP-1 cells rapidly undergo apoptosis (usually within 24 hours). FD-Mpl cells were maintained in DMEM medium with 10% foetal calf serum (FCS) and supplemented with 30 ng/mL of recombinant human TPO (rhTPO, Apollo Cytokine Research). For the antagonist assay, FD-Mpl cells were harvested by centrifugation and the resulting cell pellet was thoroughly washed, twice, with 10 mL PBS to remove residual cytokine. The cells were then resuspended in 5 mL of cell culture medium without rhTPO and incubated at 37° C. for 1 h (or 2 h in the case of the agonist assay; Note: short term withdrawal of rhTPO enhances up-regulation of the TPO receptor, c-Mpl). FD-Mpl cells were counted and resuspended in a mix of cell culture medium with added peptide of interest and incubated at 4° C. for 2 h (for the agonist assay this brief incubation at 4° C. for 2 h was omitted). Following this incubation, cells were supplemented with low doses of TPO (either 6 or 10 ng/mL of rhTPO) and plated at 5000 cells/well/100 μL medium in a 96-well tissue culture plate. In the case of the agonist assay the cells were not supplemented with rhTPO. The following controls were also run during the assay: • Positive control: FD-Mpl cells were cultured in the absence of peptide and supplemented with 30 ng/mL of rhTPO (Apollo Cytokine Research). • Negative control: FD-Mpl cells were cultured in the absence of peptide or rhTPO • DMSO Controls: Cells were cultured with either 0.1% or 1% DMSO in the presence or absence of 30 ng/mL of rhTPO. Note: DMSO is inhibitory to the growth of FD-Mpl cells at concentrations of 0.2% or higher.\n(§2) Cells were then incubated at 37° C. for 24 hours (or 48 hours in the case of the agonist assay) and cell proliferation was assessed as follows. Cells were plated in quadruplicate onto white luminescence detection plates and cell proliferation and viability were assessed by an ATP-luminescence detection assay (CellTiter Glo Luminescent Cell Viability Assay Kit, Promega). Cells were also plated in triplicate and cell morphology was assessed using phase contrast microscopy.\n(§3) For the antagonist assay, the cell numbers determined via the luminescence assay were normalised by the cell numbers obtained for FD-Mpl cells cultured in either 6 or 10 ng/mL of rhTPO without added peptide and plotted as a function of the peptide concentration (see FIGS. 1a and b). Reduction in the cell numbers as a function of increasing peptide concentration indicated competitive binding between the peptide and rhTPO at the c-Mpl receptor (i.e. the peptide is an antagonist of rhTPO). Since the peptide cannot cause dimerisation of the c-Mpl receptor resulting in activation of the receptor, and merely blocks the receptor from binding to rhTPO, the FD-Mpl cells die. For the agonist assay used with the LCP-PD peptide, the cell numbers were normalised by the cell numbers obtained with media supplemented with 30 ng/mL rhTPO and expressed as a percentage. Increasing cell numbers as a function of increasing peptide concentration (in the absence of rhTPO) indicate agonist activity for the peptide. […]", "values": [{"smiles": "CC(=O)N[C@@H](C)C(=O)N[C@H]1CSSC[C@@H](C(=O)N[C@@H](C)C(=O)O)NC(=O)[C@H](C)NC(=O)[C@H](C)NC(=O)[C@H](C)NC(=O)[C@H](CC(C)C)NC(=O)[C@H](Cc2c[nH]c3ccccc23)NC(=O)[C@H](CCC(N)=O)NC(=O)[C@H](CCCNC(=N)N)NC(=O)[C@H](CC(C)C)NC(=O)[C@H](C)NC(=O)[C@H](C)NC(=O)[C@H](C)NC1=O", "note": "[Example 2, AcACAAALRQWLAAACA] (Ac-ACAAALRQWLAAACA-OH; disulfide 2-14)", "antagonist activity against rhTPO (in words)": "much weaker antagonist of rhTPO than LCP-PM"}]}, {"target": "T1, receptor for human TPO (c-Mpl)", "assay": "Antagonist assay: proliferation of FD-Mpl cells in media supplemented with rhTPO (ATP-luminescence)", "type": "cell-based", "settings": "FD-Mpl cells, protocols of Examples 1 and 2; read-out: IC50 (nM), antagonism of cyclic peptides", "protocol": "as §1, §2, §3", "units": {"IC50": "nM"}, "values": [{"smiles": "CC[C@H](C)[C@@H]1NC(=O)[C@H](C)NC(=O)[C@@H](NC(=O)[C@H](C)N)CSSC[C@@H](C(=O)N[C@@H](C)C(=O)O)NC(=O)[C@H](C)NC(=O)[C@H](CCCNC(=N)N)NC(=O)[C@H](C)NC(=O)[C@H](C)NC(=O)[C@H](CC(C)C)NC(=O)[C@H](Cc2ccccc2)NC(=O)[C@H](CCC(N)=O)NC(=O)[C@H](CCCNC(=N)N)NC(=O)[C@H](CC(C)C)NC(=O)[C@H]([C@@H](C)O)NC(=O)[C@@H]2CCCN2C(=O)CNC(=O)[C@H](CCC(=O)O)NC1=O", "note": "[Example 9] (H-ACAIEGPTLRQFLAARACA-OH; disulfide 2-18; N-terminus and C-terminus assumed)", "IC50": "300 to 1500"}, {"smiles": "CC[C@H](C)[C@@H]1NC(=O)[C@H](C)NC(=O)[C@@H](NC(=O)[C@H](C)N)CSSC[C@@H](C(=O)N[C@@H](C)C(=O)O)NC(=O)[C@H](C)NC(=O)[C@H](CCCNC(=N)N)NC(=O)[C@H](C)NC(=O)[C@H](C)NC(=O)[C@H](CC(C)C)NC(=O)[C@H](Cc2c[nH]c3ccccc23)NC(=O)[C@H](CCC(N)=O)NC(=O)[C@H](CCCNC(=N)N)NC(=O)[C@H](CC(C)C)NC(=O)[C@H]([C@@H](C)O)NC(=O)[C@@H]2CCCN2C(=O)CNC(=O)[C@H](CCC(=O)O)NC1=O", "note": "[Example 3] (H-ACAIEGPTLRQWLAARACA-OH; disulfide 2-18; N-terminus and C-terminus assumed)", "IC50": "< 100"}, {"smiles": "CC[C@H](C)[C@@H]1NC(=O)[C@H](C)NC(=O)[C@@H](NC(=O)[C@H](C)N)CSSC[C@@H](C(=O)N[C@@H](C)C(=O)O)NC(=O)[C@H](C)NC(=O)[C@H](CCCNC(=N)N)NC(=O)[C@H](C)NC(=O)[C@H](C)NC(=O)[C@H](CC(C)C)NC(=O)[C@H](Cc2c[nH]c3ccccc23)NC(=O)[C@H](CC(=O)O)NC(=O)[C@H](CCCNC(=N)N)NC(=O)[C@H](CC(C)C)NC(=O)[C@H]([C@@H](C)O)NC(=O)[C@@H]2CCCN2C(=O)CNC(=O)[C@H](CCC(=O)O)NC1=O", "note": "[Example 7] (H-ACAIEGPTLRDWLAARACA-OH; disulfide 2-18; N-terminus and C-terminus assumed)", "IC50": "300 to 1500"}, {"smiles": "CC[C@H](C)[C@@H]1NC(=O)[C@H](C)NC(=O)[C@@H](NC(=O)[C@H](C)N)CSSC[C@@H](C(=O)N[C@@H](C)C(=O)O)NC(=O)[C@H](C)NC(=O)[C@H](CCCNC(=N)N)NC(=O)[C@H](C)NC(=O)[C@H](C)NC(=O)[C@H](CC(C)C)NC(=O)[C@H](Cc2c[nH]c3ccccc23)NC(=O)[C@H](CCC(=O)O)NC(=O)[C@H](CCCNC(=N)N)NC(=O)[C@H](CC(C)C)NC(=O)[C@H]([C@@H](C)O)NC(=O)[C@@H]2CCCN2C(=O)CNC(=O)[C@H](CCC(=O)O)NC1=O", "note": "[Example 6] (H-ACAIEGPTLREWLAARACA-OH; disulfide 2-18; N-terminus and C-terminus assumed)", "IC50": "100 to 300"}, {"smiles": "CC[C@H](C)[C@@H]1NC(=O)[C@H](C)NC(=O)[C@@H](NC(=O)[C@H](C)N)CSSC[C@@H](C(=O)N[C@@H](C)C(=O)O)NC(=O)[C@H](C)NC(=O)[C@H](CCCNC(=N)N)NC(=O)[C@H](C)NC(=O)[C@H](C)NC(=O)[C@H](CC(C)C)NC(=O)[C@H](Cc2c[nH]c3ccccc23)NC(=O)[C@H](CCC(N)=O)NC(=O)[C@H](CCCCN)NC(=O)[C@H](CC(C)C)NC(=O)[C@H]([C@@H](C)O)NC(=O)[C@@H]2CCCN2C(=O)CNC(=O)[C@H](CCC(=O)O)NC1=O", "note": "[Example 4] (H-ACAIEGPTLKQWLAARACA-OH; disulfide 2-18; N-terminus and C-terminus assumed)", "IC50": "100 to 300"}, {"smiles": "CC[C@H](C)[C@@H]1NC(=O)[C@H](C)NC(=O)[C@@H](NC(=O)[C@H](C)N)CSSC[C@@H](C(=O)N[C@@H](C)C(=O)O)NC(=O)[C@H](C)NC(=O)[C@H](CCCNC(=N)N)NC(=O)[C@H](C)NC(=O)[C@H](C)NC(=O)[C@H](CC(C)C)NC(=O)[C@H](Cc2ccc(O)cc2)NC(=O)[C@H](CCC(N)=O)NC(=O)[C@H](CCCNC(=N)N)NC(=O)[C@H](CC(C)C)NC(=O)[C@H]([C@@H](C)O)NC(=O)[C@@H]2CCCN2C(=O)CNC(=O)[C@H](CCC(=O)O)NC1=O", "note": "[Example 8] (H-ACAIEGPTLRQYLAARACA-OH; disulfide 2-18; N-terminus and C-terminus assumed)", "IC50": "300 to 1500"}, {"smiles": "CC[C@H](C)[C@@H]1NC(=O)[C@H](C)NC(=O)[C@@H](NC(=O)[C@H](C)NC(C)=O)CSSC[C@@H](C(=O)N[C@@H](C)C(=O)O)NC(=O)[C@H](C)NC(=O)[C@H](C)NC(=O)[C@H](CCCNC(=N)N)NC(=O)[C@H](C)NC(=O)[C@H](C)NC(=O)[C@H](CC(C)C)NC(=O)[C@H](Cc2c[nH]c3ccccc23)NC(=O)[C@H](CCC(N)=O)NC(=O)[C@H](CCCNC(=N)N)NC(=O)[C@H](CC(C)C)NC(=O)[C@H]([C@@H](C)O)NC(=O)[C@@H]2CCCN2C(=O)CNC(=O)[C@H](CCC(=O)O)NC1=O", "note": "[Example 1] (Ac-ACAIEGPTLRQWLAARAACA-OH; disulfide 2-19; C-terminus assumed)", "IC50": "< 100"}, {"smiles": "CC[C@H](C)[C@@H]1NC(=O)[C@H](C)NC(=O)[C@@H](NC(=O)[C@H](C)N)CSSC[C@@H](C(=O)N[C@@H](C)C(=O)O)NC(=O)[C@H](C)NC(=O)[C@H](CCCNC(=N)N)NC(=O)[C@H](C)NC(=O)[C@H](C)NC(=O)[C@H](CC(C)C)NC(=O)[C@H](Cc2c[nH]cn2)NC(=O)[C@H](CCC(N)=O)NC(=O)[C@H](CCCNC(=N)N)NC(=O)[C@H](CC(C)C)NC(=O)[C@H]([C@@H](C)O)NC(=O)[C@@H]2CCCN2C(=O)CNC(=O)[C@H](CCC(=O)O)NC1=O", "note": "[Example 10] (H-ACAIEGPTLRQHLAARACA-OH; disulfide 2-18; N-terminus and C-terminus assumed)", "IC50": "> 1500"}]}, {"target": "T1, receptor for human TPO (c-Mpl)", "assay": "Antagonist assay: proliferation of FD-Mpl cells in media supplemented with rhTPO (ATP-luminescence)", "type": "cell-based", "settings": "murine FD-Mpl cells, 6 or 10 ng/mL rhTPO, 24 hours; read-out: concentration at which the decrease in normalised cell proliferation occurred (estimated EC50, antagonist assay)", "protocol": "as §1, §2, §3", "units": {"EC50": "nM"}, "values": [{"smiles": "CC[C@H](C)[C@@H]1NC(=O)[C@H](C)NC(=O)[C@@H](NC(=O)[C@H](C)NC(C)=O)CSSC[C@@H](C(=O)N[C@@H](C)C(=O)O)NC(=O)[C@H](C)NC(=O)[C@H](C)NC(=O)[C@H](CCCNC(=N)N)NC(=O)[C@H](C)NC(=O)[C@H](C)NC(=O)[C@H](CC(C)C)NC(=O)[C@H](Cc2c[nH]c3ccccc23)NC(=O)[C@H](CCC(N)=O)NC(=O)[C@H](CCCNC(=N)N)NC(=O)[C@H](CC(C)C)NC(=O)[C@H]([C@@H](C)O)NC(=O)[C@@H]2CCCN2C(=O)CNC(=O)[C@H](CCC(=O)O)NC1=O", "note": "[Example 1] (Ac-ACAIEGPTLRQWLAARAACA-OH; disulfide 2-19; C-terminus assumed)", "EC50": "~30"}]}]}
